# Assay results: the supplement of paper PMC8728848
# This is one part of the list.
# Key:
# Test in all cases: glycan array binding signal (z-score within array); higher = stronger binding
# Conditions in all cases: glycan notation: IUPAC condensed, linker removed
# [1] = target: Gal(b1-4)GlcNAc(b1-2)Man(a1-6)[GlcNAc(b1-2)Man(a1-3)]Man(b1-4)GlcNAc(b1-4)GlcNAc
# Summary of the method: (§1)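 Negative Z-scores can be read as non-binding. The Z-score is calculated within each array and then averaged across arrays of one protein sequence at different concentrations or buffers and across linkers. Arrays, 3228 in all, were curated from the Consortium for Functional Glycomics database and kept only where the protein sequence was available.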
# [2] = target: Gal(b1-4)GlcNAc(b1-2)Man(a1-6)[Man(a1-3)]Man(b1-4)GlcNAc(b1-4)GlcNAc
# Summary of the method: as §1
# [3] = target: Gal(b1-4)GlcNAc(b1-2)[Gal(b1-4)GlcNAc(b1-4)]Man(a1-3)[Gal(b1-4)GlcNAc(b1-2)Man(a1-6)]Man(b1-4)GlcNAc(b1-4)GlcNAc
# Summary of the method: as §1
# [4] = target: Gal(b1-4)GlcNAc(b1-2)[Gal(b1-4)GlcNAc(b1-4)]Man(a1-3)[Gal(b1-4)GlcNAc(b1-2)[Gal(b1-4)GlcNAc(b1-6)]Man(a1-6)]Man(b1-4)GlcNAc(b1-4)GlcNAc
# Summary of the method: as §1
# [5] = target: Gal(b1-4)GlcNAc(b1-2)[Gal(b1-4)GlcNAc(b1-4)]Man(a1-3)[GlcNAc(b1-4)][Gal(b1-4)GlcNAc(b1-2)Man(a1-6)]Man(b1-4)GlcNAc(b1-4)GlcNAc
# Summary of the method: as §1
# [6] = target: Gal(b1-4)GlcNAc(b1-2)[Gal(b1-4)GlcNAc(b1-4)]Man(a1-3)[GlcNAc(b1-4)][Gal(b1-4)GlcNAc(b1-2)[Gal(b1-4)GlcNAc(b1-6)]Man(a1-6)]Man(b1-4)GlcNAc(b1-4)GlcNAc
# Summary of the method: as §1
# [7] = target: Gal(b1-4)GlcNAc(b1-2)[Gal(b1-4)GlcNAc(b1-6)]Man(a1-6)[Gal(b1-4)GlcNAc(b1-2)Man(a1-3)]Man(b1-4)GlcNAc(b1-4)GlcNAc
# Summary of the method: as §1
# [8] = target: Gal(b1-4)GlcNAc(b1-2)[Gal(b1-4)GlcNAc(b1-6)]Man(a1-6)[Gal(b1-4)GlcNAc(b1-2)Man(a1-3)]Man(b1-4)GlcNAc(b1-4)[Fuc(a1-6)]GlcNAc
# Summary of the method: as §1
# [9] = target: Gal(b1-4)GlcNAc(b1-2)[Gal(b1-4)GlcNAc(b1-6)]Man(a1-6)[GlcNAc(b1-4)][Gal(b1-4)GlcNAc(b1-2)Man(a1-3)]Man(b1-4)GlcNAc(b1-4)GlcNAc
# Summary of the method: as §1
# [10] = target: Gal(b1-4)GlcNAc(b1-2)[Gal(b1-4)GlcNAc(b1-6)]Man(a1-6)[GlcNAc(b1-4)][Gal(b1-4)GlcNAc(b1-2)[Gal(b1-4)GlcNAc(b1-4)]Man(a1-3)]Man(b1-4)GlcNAc(b1-4)[Fuc(a1-6)]GlcNAc
# Summary of the method: as §1
# [11] = target: Gal(b1-4)GlcNAc(b1-3)Gal(b1-3)GalNAc
# Summary of the method: as §1
# [12] = target: Gal(b1-4)GlcNAc(b1-3)Gal(b1-3)GlcNAc
# Summary of the method: as §1
# [13] = target: Gal(b1-4)GlcNAc(b1-3)Gal(b1-4)Glc
# Summary of the method: as §1
# [14] = target: Gal(b1-4)GlcNAc(b1-3)Gal(b1-4)GlcNAc
# Summary of the method: as §1
# [15] = target: Gal(b1-4)GlcNAc(b1-3)Gal(b1-4)GlcNAc(b1-2)Man(a1-3)[Gal(b1-4)GlcNAc(b1-3)Gal(b1-4)GlcNAc(b1-2)Man(a1-6)]Man(b1-4)GlcNAc(b1-4)GlcNAc
# Summary of the method: as §1
# [16] = target: Gal(b1-4)GlcNAc(b1-3)Gal(b1-4)GlcNAc(b1-2)Man(a1-3)[Gal(b1-4)GlcNAc(b1-3)Gal(b1-4)GlcNAc(b1-2)Man(a1-6)]Man(b1-4)GlcNAc(b1-4)[Fuc(a1-6)]GlcNAc
# Summary of the method: as §1
# [17] = target: Gal(b1-4)GlcNAc(b1-3)Gal(b1-4)GlcNAc(b1-2)[Gal(b1-4)GlcNAc(b1-3)Gal(b1-4)GlcNAc(b1-6)]Man(a1-6)[Gal(b1-4)GlcNAc(b1-3)Gal(b1-4)GlcNAc(b1-2)Man(a1-3)]Man(b1-4)GlcNAc(b1-4)GlcNAc
# Summary of the method: as §1
# [18] = target: Gal(b1-4)GlcNAc(b1-3)Gal(b1-4)GlcNAc(b1-2)[Gal(b1-4)GlcNAc(b1-3)Gal(b1-4)GlcNAc(b1-6)]Man(a1-6)[Gal(b1-4)GlcNAc(b1-3)Gal(b1-4)GlcNAc(b1-2)Man(a1-3)]Man(b1-4)GlcNAc(b1-4)[Fuc(a1-6)]GlcNAc
# Summary of the method: as §1
# [19] = target: Gal(b1-4)GlcNAc(b1-3)Gal(b1-4)GlcNAc(b1-3)Gal(b1-4)GlcNAc
# Summary of the method: as §1
# [20] = target: Gal(b1-4)GlcNAc(b1-3)Gal(b1-4)GlcNAc(b1-3)Gal(b1-4)GlcNAc(b1-2)Man(a1-3)[Gal(b1-4)GlcNAc(b1-3)Gal(b1-4)GlcNAc(b1-3)Gal(b1-4)GlcNAc(b1-2)Man(a1-6)]Man(b1-4)GlcNAc(b1-4)GlcNAc
# Summary of the method: as §1
# [21] = target: Gal(b1-4)GlcNAc(b1-3)Gal(b1-4)GlcNAc(b1-3)Gal(b1-4)GlcNAc(b1-2)Man(a1-3)[Gal(b1-4)GlcNAc(b1-3)Gal(b1-4)GlcNAc(b1-3)Gal(b1-4)GlcNAc(b1-2)Man(a1-6)]Man(b1-4)GlcNAc(b1-4)[Fuc(a1-6)]GlcNAc
# Summary of the method: as §1
# [22] = target: Gal(b1-4)GlcNAc(b1-3)Gal(b1-4)GlcNAc(b1-3)Gal(b1-4)GlcNAc(b1-2)[Gal(b1-4)GlcNAc(b1-3)Gal(b1-4)GlcNAc(b1-3)Gal(b1-4)GlcNAc(b1-6)]Man(a1-6)[Gal(b1-4)GlcNAc(b1-3)Gal(b1-4)GlcNAc(b1-3)Gal(b1-4)GlcNAc(b1-2)Man(a1-3)]Man(b1-4)GlcNAc(b1-4)[Fuc(a1-6)]GlcNAc
# Summary of the method: as §1
binder,measurement,setting,value
Als3-41 (Candida albicans) (protein) KTITGVFNSFNSLTWSNAATYNYKGPGTPTWNAVLGWSLDGTSASPGDTFTLNMPCVFKFTTSQTSVDLTAHGVKYATCQFQAGEEFMTFSTLTCTVSNTLTPSIKALGTVTLPLAFNVGGTGSSVDLEDSKCFTAGTNTVTFNDGGKKISINVDFERSNVDPKGYLTDSRVIPSLNKVSTLFVAPQCANGYTSGTMGFANTYGDVQIDCSNIHVGITKGLNDWNYPVSSESFSYTKTCSSNGIFITYKNVPAGYRPFVDAYISATDVNSYTLSYANEYTCAGGYWQRAPFTLRWTGYRNSDAGSNGIVIVATTRTVTDSTTAVTTLPFDPNRDKTKTIEILKPIPTTTITTSYVGVTTSYLTKTAPIGETATVIVD,glycan array binding signal (z-score),[1],-0.102
same,glycan array binding signal (z-score),[2],-0.291
same,glycan array binding signal (z-score),[3],-0.251
same,glycan array binding signal (z-score),[4],-0.3
same,glycan array binding signal (z-score),[5],-0.351
same,glycan array binding signal (z-score),[6],-0.386
same,glycan array binding signal (z-score),[7],-0.306
same,glycan array binding signal (z-score),[8],1.31
same,glycan array binding signal (z-score),[9],-0.357
same,glycan array binding signal (z-score),[10],-0.29
same,glycan array binding signal (z-score),[11],-0.255
same,glycan array binding signal (z-score),[12],-0.341
same,glycan array binding signal (z-score),[13],-0.303
same,glycan array binding signal (z-score),[14],-0.277
same,glycan array binding signal (z-score),[15],6.2
same,glycan array binding signal (z-score),[16],-0.046
same,glycan array binding signal (z-score),[17],1.54
same,glycan array binding signal (z-score),[18],-0.085
same,glycan array binding signal (z-score),[19],-0.354
same,glycan array binding signal (z-score),[20],2.56
same,glycan array binding signal (z-score),[21],-0.126
same,glycan array binding signal (z-score),[22],0.011
